The results in this text go back to PubChem BioAssay AID1159614 (National Center for Advancing Translational Sciences (NCATS), 2016).

The campaign covered roughly 45,000 compounds. About 65 (0.1%) were called active. Calls come from the whole dose curve; as a rule, active = well fitted activation curve with a large enough effect; inconclusive = small, poorly fitted or top-dose-only effect; inactive = no such curve, though single readings can be large or run the other way. Some of the results follow.

Chain of UniProt P54803 (P54803 whole entry, looked up): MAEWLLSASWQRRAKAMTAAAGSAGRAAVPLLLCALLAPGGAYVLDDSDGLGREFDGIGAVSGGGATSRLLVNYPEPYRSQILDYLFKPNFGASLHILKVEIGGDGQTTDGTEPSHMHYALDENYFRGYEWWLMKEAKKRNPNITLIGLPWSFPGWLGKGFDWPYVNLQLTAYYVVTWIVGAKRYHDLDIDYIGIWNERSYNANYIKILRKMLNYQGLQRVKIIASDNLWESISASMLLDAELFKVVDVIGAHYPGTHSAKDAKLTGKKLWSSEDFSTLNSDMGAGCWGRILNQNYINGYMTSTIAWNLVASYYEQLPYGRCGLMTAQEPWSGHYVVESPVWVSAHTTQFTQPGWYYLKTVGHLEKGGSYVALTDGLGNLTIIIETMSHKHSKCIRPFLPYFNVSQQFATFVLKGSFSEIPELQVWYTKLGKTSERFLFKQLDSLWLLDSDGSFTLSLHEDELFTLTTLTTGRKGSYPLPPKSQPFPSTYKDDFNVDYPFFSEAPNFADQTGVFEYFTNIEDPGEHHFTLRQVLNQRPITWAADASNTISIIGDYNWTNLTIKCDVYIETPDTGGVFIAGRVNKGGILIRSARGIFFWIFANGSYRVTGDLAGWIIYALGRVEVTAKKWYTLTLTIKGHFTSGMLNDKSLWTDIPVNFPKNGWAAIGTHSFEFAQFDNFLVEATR

The experiment deals with Galactocerebrosidase (Homo sapiens) (UniProt P54803). As to the kind of experiment: A Novel Cell-Based Assay to Identify Small Molecules for B -Galactocerebrosidase. Note: 0% is about no effect; nearly all actives have a fitted effect of over 65% in size. Particulars: 145M-Twi-hGALC-G270D cells (Twitcher mouse brain line with human GALC G270D), HMU-beta-Gal fluorescence, 48 h; series mostly up to 57.5 µM; activation: at the top concentration. Summed up:
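Mutant human GALC (G270D), stably expressed in a Twitcher mouse brain cell line lacking endogenous GALC, is measured in live-treated cells via 6-hexadecanoylamino-4-methylumbelliferyl-β-galactoside hydrolysis (0.1 mM final, pH 5.2) with fluorescent detection.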
On to `O=C(CCSCc1ccccc1Cl)N1CCN(c2cccc(Cl)c2)CC1`, for which the “activation” value is inactive: 18.4%. On to `COc1ccc(NC(=O)CC2C(=O)N(c3ccc(C)cc3)C(=O)N2C2CCCCC2)cc1` (stereo not given), for which the “activation” value is inactive: -16.2%. The result for `CCCn1c(CCC(=O)Nc2cc(Cl)c(OC)cc2OC)nc2cccnc21` reads inactive: -9.91%; that for `Cc1ccc(C)c(NC(=O)CSc2ncc3c(n2)-c2ccc(Cl)cc2N(C)S3(=O)=O)c1`, inactive: -24.9%; that for `CCn1nc(-c2ccccc2)c(-c2ccccc2)c(C(=O)Nc2nc(C)c(C(=O)N(C)C)s2)c1=O`, inactive: -5.29%. Take `CCN(C(=O)CSc1nc2ccccc2n1CC(=O)Nc1ccccc1C)c1ccccc1`: the “activation” value was inactive: -20.5%. Regarding `COc1cc(CNc2ccc3[nH]c(=O)[nH]c3c2)ccc1OCc1ccccc1F`, the “activation” value was inactive: -16.6%.

Regarding `CCOC(=O)c1ccc(OCCN2C[C@H](O)[C@@H](O)[C@H](O)[C@H]2CO)cc1`, the “activation” value is inactive: -16.6%. The result for `COc1ccc(-n2ccn(Cc3ccccc3Cl)c(=O)c2=O)cc1OC` reads inactive: -21.5%; that for `CC(C)N(Cc1ccccc1)C(=O)CN1C(=O)COc2ccc(S(=O)(=O)NC3CCCC3)cc21`, inactive: -14.7%. In the case of `Cc1cc(C)cc(NC(=O)CCc2nnc3n(CC(C)C)c(=O)c4ccccc4n23)c1` it was inactive: -11.8%; in that of `Cc1ccc(NC(=O)CSc2nc3nccnc3c(=O)n2CCc2c[nH]c3ccccc23)cc1`, inactive: 10.4%. The result for `Nc1cccc2c1CN(C1CCC(=O)NC1=O)C2=O` (stereo not given) reads inactive: -5.27%; that for `CCOC(=O)c1cc2c(=O)n3ccccc3nc2n(CCCOC)c1=NC(=O)C(C)(C)Oc1ccc(Cl)cc1`, inactive: -14.2%; that for `CN(C)c1ccc(C(CNS(=O)(=O)c2ccc(Br)cc2)N2CCCC2)cc1` (stereo not given), inactive: -15.4%. Take `CCN(CC)S(=O)(=O)c1ccc(NC(=O)CCc2c(C)nc3cc(-c4ccc(Cl)cc4)nn3c2C)cc1`: the “activation” value is inactive: -44.4%.

As to `CC(C)Cc1nn2c(=O)cc(COC(=O)c3ccc4c(c3)OCO4)nc2s1`, the “activation” value was inactive: -6.76%. `COc1ccc(Cl)cc1NC(=O)CSc1ccc(-c2sc(C)nc2C)nn1`: the “activation” value is inactive: -12.5%.

Regarding `Cc1ccc(NC(=O)Cn2ncn3c(cc4ccccc43)c2=O)c(C)c1`, the “activation” value is inactive: 8.19%. The result for `CCOc1ccc(C2CC(=O)n3nc(-c4ccc(C)cc4)nc3S2)cc1` (stereo not given) reads inactive: -16.7%; that for `CCc1ccc(N2C(=O)CC(c3cc(OC)ccc3OC)C3=C2COC3=O)cc1` (stereo not given), inactive: 2.03%; that for `CC(=O)Nc1ccc(O)cc1`, inactive: -3.55%.

On to `COc1ccc(CNC(=O)CSc2nc3ccsc3c(=O)n2Cc2ccccc2Cl)cc1`, for which the “activation” value was inactive: -5.28%. The result for `O=C(Nc1ccc2oc(-c3cccnc3)nc2c1)c1ccc(-c2ccc(Cl)cc2)o1` reads inactive: -14.7%. As for `Cc1cc2oc(C(=O)Nc3sc4c(c3C(=O)NCC3CCCO3)CCC4)cc(=O)c2cc1C` (stereo not given), the “activation” value is inactive: -13.7%.

`CCOc1cc(CNC(=O)c2ccc(C)c(NC(=O)c3nsc4ccccc34)c2)ccc1OC`: the “activation” value was inactive: -15.4%. `COc1ccccc1CNC(=O)Cc1csc2nc(-c3ccc(Cl)cc3)cn12`: the “activation” value was inactive: -9.81%. With `CCCCCn1c(=N)c(S(=O)(=O)c2ccccc2)cc2c(=O)n3ccccc3nc21`, the “activation” value was inactive: -5.98%.

Consider `CCOc1ccc(CCNC(=O)Cn2nc(CC)n3c(cc4sc(CC)cc43)c2=O)cc1OCC`, for which the “activation” value was inactive: 6.16%. Turning to `CCOc1cc2sc(N3CCC(C(=O)Nc4ccc(C)cc4)CC3)nc2cc1Br`, the “activation” value is inactive: -13.4%. Consider `CC(NC(=O)c1ccc2c(c1)N(Cc1ccc(Cl)cc1)C(=O)c1ccccc1S2(=O)=O)c1ccccc1` (stereo not given), for which the “activation” value is inactive: -9.76%.

On to `CCOC(=O)c1sc(NC(=O)c2nc3ncccn3n2)c(C(=O)OC)c1C`, for which the “activation” value was inactive: -3.26%. Consider `COc1ccc(CNC(=O)CN(c2ccccc2OC)S(=O)(=O)c2ccc(C)cc2)cc1`, for which the “activation” value was inactive: -9.01%. Turning to `CCc1ccc(CSc2nc(-c3ccc(OC)cc3)nc3c2Cc2c(CO)cnc(C)c2O3)cc1`, the “activation” value was inactive: -12.8%.

For `O=S(=O)(NCc1ccccc1)c1ccc(-c2cnc(C3CC3)o2)cc1`, the “activation” value is inactive: -17.3%. In the case of `O=c1oc2c(CN3CCOCC3)c(O)ccc2cc1-c1ccc(Cl)cc1`, the “activation” value is inactive: -25.4%.

Turning to `CCn1c(=O)c2cc(C(=O)NC3CCCCCC3)sc2c2ccccc21`, the “activation” value was inactive: -37.4%.

On to `CC(=O)Nc1nonc1-c1nnc(SCC(=O)Nc2cc(C)cc(C)c2)n1C`, for which the “activation” value is inactive: -12.5%. In the case of `O=c1c2cccnc2n(Cc2ccccc2F)c(=O)n1Cc1ccccc1Cl` it was inactive: -6.89%; in that of `Cc1ccc(C)c(N2CCN(C(=O)CN3CCSc4ccc(S(=O)(=O)N(C)C)cc43)CC2)c1`, inactive: -34.4%. The result for `CCCCOC(=O)CSc1nnc(-c2ccccc2)o1` reads inactive: -13.5%; that for `C[C@]12CC[C@@H]3c4ccc(O)cc4CC[C@H]3[C@@H]1CCC2=O`, inactive: -17.6%; that for `COc1nc(-c2ccc(C)cc2)ccc1-c1noc(-c2ccccc2Br)n1`, inactive: -8.08%. In the case of `COC(=O)c1ccc(Cl)cc1NC(=O)N1CCCn2nc(C)cc21` it was inactive: -29.9%; in that of `COc1cc(OC)c(NC(=O)CCCn2nc(C)c3sc4ccccc4c3c2=O)cc1Cl`, inactive: -1.78%. As for `COc1ccc(-c2oc3ncn4nc(-c5ccccc5Br)nc4c3c2-c2ccc(OC)cc2)cc1`, the “activation” value is inactive: -18.9%.

As for `COc1ccccc1CNc1ccc(-c2nc(C)no2)cc1[N+](=O)[O-]`, the “activation” value was inactive: -16.6%. The result for `Cc1oc2ncn(CC(C)C)c(=O)c2c1C(=O)N1CCN(c2ccc(F)cc2)CC1` reads inactive: 4.95%; that for `O=C(c1ccc(C(F)(F)F)cc1)N1CCC(c2nc(-c3ccc(S(=O)(=O)N4CCCC4)cc3)no2)CC1`, inactive: -2.48%; that for `COc1cccc(NC(=O)/C(C#N)=C\c2cn(Cc3ccc(C)cc3)c3ccccc23)c1`, inactive: -19.6%. Turning to `COc1cccc2c1Oc1ncccc1N(C(=O)CCC(=O)NCc1ccc(N(C)C)cc1)C2`, the “activation” value was inactive: -9.5%. The result for `O=C(CN1CCCN(Cc2ccc(Cl)cc2)S1(=O)=O)Nc1ccccc1F` reads inactive: 3.23%; that for `COc1cccc(NC(=O)c2oc3ccccc3c2NC(=O)c2ccc(C(F)(F)F)cc2)c1`, inactive: -7.12%.

`Cc1ccc(C)c(NC(=O)Cn2cc(C(=O)C3CCCCC3)c3ccccc32)c1`: the “activation” value was inactive: -9.73%. In the case of `O=C(c1ccc2c(c1)N(Cc1cccc(Cl)c1)C(=O)c1ccccc1S2(=O)=O)N1CCCCC1` it was inactive: -7.73%; in that of `Cc1ccc2[nH]c3c(=O)n(CC(=O)N(C)c4cc(Cl)ccc4C)ncc3c2c1`, inactive: -4.14%; in that of `CC1=C(c2ccc(C)c(C)c2)S(=O)(=O)N=C1N1CCC(C(=O)NCCc2ccc(Cl)cc2)CC1`, inactive: -13.2%. With `CCOc1ccc(NC(=O)N2CC=C(c3c[nH]c4ccccc34)CC2)cc1`, the “activation” value was inactive: -19.6%. The result for `CCOC(=O)c1c(C)[nH]c(C)c1S(=O)(=O)N1CCC(C(=O)N2CCN(c3ccc(Cl)cc3)CC2)CC1` reads inactive: -1.14%; that for `COc1ccccc1NC(=O)c1ccc2c(Cl)c3c(nc2c1)CCCC3`, inactive: -5.87%.
